Data taken from the supplement of paper PMC10126150.
Sequences with one replicate were seen in a single cluster, so their values are uncertain.

Test system: ATP
Assay: switch fluorescence ratio, 500 uM ATP over buffer (Cy3 cluster intensity, sum of 5 cycles each) (fold (ratio)); higher = stronger signal-on switching upon ATP binding; sequences stand for … in TCGTCGGCAGCGTCAGATGTGTATAAGAGACAGTTTTTTTTTTTTTTTTTTTTTTTTT…TC
Settings: aptamer strand: ATP DNA aptamer (quencher-CACCTGGGGGAGTATTGCGGAGGAAGG + anchor), 100 nM annealed; ATP concentration: 500 uM; one replicate
In short: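 Cy3-labelled switching-strand clusters on a modified Illumina MiSeq flow-cell were annealed to 100 nM quencher-labelled ATP aptamer, imaged in selection buffer, then imaged after 15 min with 500 uM ATP at 22 °C. Five buffer/ATP cycles ran, with NaOH stripping and re-annealing between them. The fluorescence ratio is summed target-cycle over summed buffer-cycle Cy3 intensity per cluster, averaged per switch-domain sequence. Clusters outside 100-1000 RFU were excluded.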
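Also: ATP exposure 15 min at 22 °C before imaging.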

Sequence	switch fluorescence ratio
TTTCGGCAAT	1.36
AATCTCAGCA	1.12
TATAACTTCT	0.986
GGCGTGATA	1.21
ACTCTGCATG	6.71
ACGCACCTC	1.64
TTATCGTCCC	1.02
GGGCCCGCAT	1.11
ACGGGACGCT	1.06
TAAGTGTTGT	1.04
TTCTTACCTT	1.07
ATTGAGGATC	1
TAGTTTAATG	0.958
AAGATGTGTT	1.02
TAGACTGTTA	1.03
ATGGGGTGAC	0.986
TCTTCGGCAA	1.12
ACCGGGCATG	1
ATGAATCTAG	0.963
CCGGTGAACA	0.969
GACACGTCCA	1.03
TGTAGAGAGT	0.987
GGACCTCAC	1.2

Sequence	switch fluorescence ratio
GAGTGAAGTT	0.97
CGGTGTCAG	0.994
ACTTGCTTCC	2.23
GTCTTATGCA	0.993
TCGTTGGTTC	0.949
AGATTAACCG	1.07
TTCGACGGTA	1.05
TGCCGACAAG	1.02
TGATCGAATA	0.991
ATCAAAAGCA	1.02
ATGCGAAGCC	1.03
TTTCTATTAT	1.03
TTTATCAGAG	1.03
TGTCACGTTA	1.22
TTGTGTAATA	1.14
CGAGTCGAGA	0.976
TACTGCTGGT	1.01
GAGGAAGTAG	1.02
CTAAGAAGTA	0.99
TCATCGTGTA	0.996
GGATAGGCAT	1
GGGTGGGAAC	1.03
GTTTGAGAAG	1.01

Sequence	switch fluorescence ratio
ACAGTTGTGT	1.02
TAATTCCGT	0.991
CTAGCCTAGC	1.02
TCTTCTAGCA	1.12
ACATAGAAGG	1.03
AACATCCTTT	1.03
GACCTGGAAA	1.05
GCTACGGTGG	1.02
GGCCCTCCCT	1.07
CTTCCACAGA	1.24
TGGACATAAT	1
TTGGGATGCT	2.9
GATCCGCGAA	1.72
CAGCGTTAAA	0.978
CCGGTGGAGG	0.987
CTTACTTAGC	1.16
CGCTTGATGT	0.976
GGAGGGAAAG	0.993
ATGCATGAA	0.982
ACTTTTGAGC	1.23
TCATCAAGT	0.985
TTATGCGTCG	1
CGTTGTATTC	0.912

Sequence	switch fluorescence ratio
TTACGTTCCG	1.02
ACCGTTGTCG	1.07
CATTGGCGGG	1
ATATGTATTG	1
GGCTTTACTG	0.95
TCAATATGGA	0.962
AAGGGCAAAA	1.01
CCCGTGATGA	1.22
TTAGAATATT	1.01
ACTAACGCGG	1.05
ATGCCGGTGA	0.998
GCTACGGCAA	1.25
ATGGAAATAA	1
AGCGTCGATG	1.04
AAGATCTCCT	1.02
GGCTACGAGT	1.03
GTACTACGGA	0.99
CCCTGTTGTT	0.954
AGGGAAAAGC	1.17
GATGCTCTTT	0.995
TTACTATAGC	1.08
GGACTGGTAG	0.99
TAGAGACAGG	0.95

Sequence	switch fluorescence ratio
ATAAGCTATA	0.996
TAGTGAACGA	1
AGTCACCTTA	0.971
TATCGTCCTG	0.997
CTGCAGTGTC	1.68
TCGGGTAGGA	0.976
TCAAATATGC	1.05
TAGGAGGTTG	0.935
TGATCACCTC	1.01
TAGGCTTAGA	0.997
GCCGGGATCA	0.997
TGATAGAGGC	1.03
CCCGGTAACC	1.08
GCTAACGTAA	1.3
GACTGAAAA	0.989
CAATGACTG	0.847
AGGCGCAATG	2.09
CGCTACGGAA	1.76
ATAGTATAGT	0.975
CGGATGCGAG	0.966
AGGAACGAAA	0.976
GTCAGTCGCT	0.976
GTTAACCGCA	1.38

Sequence	switch fluorescence ratio
TTTGCCGACA	0.988
CCAGTGGGGT	1.01
TTTCTTTTCA	1.06
TACTGCAACA	1.5
TCGTGCCTGG	0.989
GTACTCAGG	1.12
TGGAATAAAC	1.02
TCTGTAGGAT	0.99
GATGCTTTAA	0.935
AACCCTCTCG	1.11
GTGACAAGTC	0.975
ATCTCTCTGA	1.02
ACTCAGGGGT	1.28
TACGGGCTAG	1.04
CGAGGAGTCG	0.978
CCCGGTTAAC	1.13
GTATTAGAAC	1
ACCACCTTAA	1.09
ATCAGCCGCA	1.09
GCACTTTTAA	1.02
ATTATAGGAG	1
TGCCCATTGG	0.966
ATCCGCGTCT	1.13

Sequence	switch fluorescence ratio
GTAACACTAT	0.989
CCCTGGGGTC	1.1
CTCAGTGAGC	1.03
GATCCTAGGG	0.967
TGAGTGGCCA	0.994
TTTGTCTTGT	0.975
CTCTGTAGAG	1.03
AGAATTGTAG	0.981
GCAAGGGAAG	1.01
CCCAAAAGGA	1.26
TGCCTAGGCT	0.957
GCTGGTTGAG	1.02
TATAGCGATA	1.19
AGCTCTGTGG	0.944
TATTCGGCGG	1.01
ACCACTTACG	1.54
AGAGACACAG	1.05
ACGGTGCAAG	1.05
GAGGAATAAG	1
